Laboratory results published in the supplement of paper PMC9135407.
Where “and” joins values, the source holds several entries; their conditions need not be identical. Equal entries are not always repeated. Structures can show the parent of a compound that is named as a salt. Among all 5,800 compounds or so, about 620 (11%) showed activity.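 Rule for the calls: active = score above a cut-off or among the top three wells of a plate; in these data no inactive exceeds 0.85.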 The list shows a part of the results, in another mix than the full data.

System: primary human hepatic stellate cells (donor 1)
Test: scaled lipid accumulation score (0 = DMSO-like, 1 = nortriptyline-like); higher = stronger HSC inactivation (lipid re-accumulation), active = hit call of the paper
Details: 48 h
Procedure: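 Primary lipid accumulation screen in primary human hepatic stellate cell myofibroblasts (donor 1, passage 8) in 384-well plates. 100 nL of library compound was pin-transferred into 30 µL medium in duplicate, and cells were treated for 48 h. The 'Scaled' score combines distance from plate baseline, toxicity and reproducibility penalties, and is normalised to nortriptyline (positive) and DMSO (negative) controls on each plate. A hit is defined as scaled >0.85 or among the top 3 wells per plate.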

[1] = library stock concentration: 1 mM
[2] = library stock concentration: 3.33 mM
[3] = library stock concentration: 10 mM
[4] = library stock concentration: 80 uM
[5] = library stock concentration: 400 uM
[6] = library stock concentration: 2 mM

## CCCCC[C@H](O)/C=C/[C@H]1[C@H](O)CC(=O)[C@@H]1C/C=C\CCCC(=O)NC(CO)CO [Prostaglandin E2 serinol amide]
[1]
  scaled lipid accumulation score: inactive: ≤ 0

## CS(=O)(=O)CCNCc1ccc(-c2ccc3ncnc(Nc4ccc(OCc5cccc(F)c5)c(Cl)c4)c3c2)o1.Cc1ccc(S(=O)(=O)O)cc1.Cc1ccc(S(=O)(=O)O)cc1
[2]
  scaled lipid accumulation score: active: 1.36
[3]
  scaled lipid accumulation score: active: 1.55

## CNCCC(Oc1ccc(C(F)(F)F)cc1)c1ccccc1.Cl (centres undefined) [Fluoxetine HCl]
[2]
  scaled lipid accumulation score: active: 0.709
[3]
  scaled lipid accumulation score: active: 1.02

## CNC(=O)[C@H](Cc1ccccc1)NC(=O)[C@H](CC(C)C)[C@H](CSc1cccs1)C(=O)NO [Batimastat (BB-94)]
[2]
  scaled lipid accumulation score: inactive: ≤ -0.009
[3]
  scaled lipid accumulation score: inactive: ≤ 0

## CCCCC[C@H](O)C/C=C1/C(=O)C=C[C@@H]1C/C=C\CCCC(=O)O [D12-Prostaglandin J2]
[1]
  scaled lipid accumulation score: inactive: ≤ -0.021

## Cn1nnnc1SCC1=C(C(=O)O)N2C(=O)[C@@H](NC(=O)[C@H](OC=O)c3ccccc3)[C@H]2SC1 [Cefamandole nafate]
[3]
  scaled lipid accumulation score: inactive: ≤ 0

## C[C@]12CC[C@@H]3c4ccc(O)cc4CC[C@H]3[C@@H]1C[C@H](O)[C@@H]2O
[3]
  scaled lipid accumulation score: inactive: ≤ 0

## NOCC(=O)O [O-(Carboxymethyl)hydroxylamine hemihydrochloride]
[3]
  scaled lipid accumulation score: inactive: ≤ 0

## Cl.Clc1ccc(CCCOCCCN2CCCCC2)cc1
[3]
  scaled lipid accumulation score: active: 1.05

## CCCCC/C=C\C/C=C\C/C=C\C/C=C\CCCC(=O)OC(CO)CO [2-Arachidonoyl Glycerol]
[1]
  scaled lipid accumulation score: inactive: ≤ 0

## CCCCC/C=C\C/C=C\C/C=C\C/C=C\CCCC(=O)OC(CO)CO [2-Arachidonoylglycerol]
[1]
  scaled lipid accumulation score: inactive: 0.011

## Fc1cc(-c2ccnc(Nc3ccc(-n4cnc(N5CCOCC5)n4)cc3)n2)cc(N2CCOCC2)c1
[4]
  scaled lipid accumulation score: inactive: 0.394
[5]
  scaled lipid accumulation score: inactive: 0.734
[6]
  scaled lipid accumulation score: inactive: 0.178
[3]
  scaled lipid accumulation score: inactive: 0.442

## CS(=O)(=O)c1cccc(CNc2nc(Nc3ccc4c(c3)CCC(=O)N4)ncc2C(F)(F)F)c1
[4]
  scaled lipid accumulation score: inactive: ≤ -0.016
[5]
  scaled lipid accumulation score: inactive: 0.003
[6]
  scaled lipid accumulation score: inactive: ≤ -0.016
[2]
  scaled lipid accumulation score: inactive: ≤ 0
[3]
  scaled lipid accumulation score: inactive: ≤ 0 and inactive: 0.58 and inactive: 0.381

## CC1(C)CCC(CN2CCN(c3ccc(C(=O)NS(=O)(=O)c4ccc(NCC5CCOCC5)c([N+](=O)[O-])c4)c(Oc4cnc5[nH]ccc5c4)c3)CC2)=C(c2ccc(Cl)cc2)C1
[2]
  scaled lipid accumulation score: inactive: ≤ -0.009
[3]
  scaled lipid accumulation score: inactive: ≤ 0

## CC(C)(C)n1nc(-c2ccc(Cl)cc2)c2c(N)ncnc21
[2]
  scaled lipid accumulation score: inactive: ≤ 0
[3]
  scaled lipid accumulation score: inactive: 0.101

## CCCCCCCCCCC[C@@H](C[C@@H]1OC(=O)[C@H]1CCCCCC)OC(=O)[C@H](CC(C)C)NC=O [Orlistat]
[2]
  scaled lipid accumulation score: inactive: 0.229
Library stock concentration: 4 mM
  scaled lipid accumulation score: inactive: 0.263
[3]
  scaled lipid accumulation score: inactive: 0.296 and inactive: 0.642 and inactive: 0.506

## CCCCCCCCCCC[C@@H](C[C@@H]1OC(=O)[C@H]1CCCCCC)OC(=O)[C@H](CC(C)C)NC=O
[3]
  scaled lipid accumulation score: inactive: 0.473

## S=C(Nc1ccccc1)Nc1nccs1 [1-Phenyl-3-(2-thiazolyl)-2-thiourea]
[3]
  scaled lipid accumulation score: inactive: ≤ -0.055

## COCCOc1cc2nc[nH]c(=O)c2cc1OCCOC
[3]
  scaled lipid accumulation score: inactive: 0.018

## O=C1O[C@H](CO)[C@@H](O)[C@H](O)[C@H]1O [Gluconolactone]
[3]
  scaled lipid accumulation score: inactive: ≤ -0.007

## CCCCC[C@H](O)/C=C/[C@@H]1[C@@H](C/C=C\CCCC(=O)NCCO)[C@@H](O)C[C@H]1O [Prostaglandin F2.alpha. Ethanolamide]
[1]
  scaled lipid accumulation score: inactive: ≤ 0

## Cc1cc(Nc2ncnc3ccc(-c4ccc(CNCCS(C)(=O)=O)o4)cc23)ccc1Oc1ccn2ncnc2c1 [HER2-Inhibitor-1]
[3]
  scaled lipid accumulation score: active: 0.977

## CSc1ccc(C(=O)c2[nH]c(=O)[nH]c2C)cc1 [Enoximone]
[3]
  scaled lipid accumulation score: inactive: 0.125

## CCC(=O)OCC(=O)[C@@]1(OC(=O)CC)[C@H](C)CC2C3C([C@@H](O)C[C@@]21C)[C@@]1(C)C=CC(=O)C=C1C[C@H]3Cl (some centres undefined)
[3]
  scaled lipid accumulation score: inactive: 0.055

## O=C(O)C1CSCN1 (centres undefined)
[3]
  scaled lipid accumulation score: inactive: ≤ 0

## CC(C)(S)[C@@H](N)C(=O)O [Penicillamine]
[3]
  scaled lipid accumulation score: inactive: ≤ 0
Library stock concentration: 13.4 mM
  scaled lipid accumulation score: inactive: 0.272

## CO[C@H]1C[C@H](O[C@H]2[C@H](C)[C@@H](O[C@@H]3O[C@H](C)C[C@H](N(C)C)[C@H]3OC(C)=O)[C@@H](C)C[C@@]3(CO3)C(=O)[C@H](C)[C@@H](OC(C)=O)[C@@H](C)[C@@H](C)OC(=O)[C@@H]2C)O[C@@H](C)[C@@H]1OC(C)=O [Troleandomycin]
  scaled lipid accumulation score: inactive: ≤ 0
[3]
  scaled lipid accumulation score: inactive: ≤ 0

## COc1ccc(-c2ccc(=N)n(CCCC(=O)O)n2)cc1
[3]
  scaled lipid accumulation score: inactive: ≤ 0 and inactive: ≤ -0.002

## COc1ccc(-c2ccc(=N)n(CCCC(=O)O)n2)cc1 [Gabazine]
  scaled lipid accumulation score: inactive: 0.002

## Cc1cc(C(=O)NNCc2ccccc2)no1 [Isocarboxazid]
  scaled lipid accumulation score: inactive: ≤ 0

## COc1ccc(C(=O)Nc2sc3c(c2C(N)=O)CCCC3)cc1OC
[2]
  scaled lipid accumulation score: inactive: 0.765
[3]
  scaled lipid accumulation score: inactive: 0.808 and inactive: 0.676

## N[C@@H](Cn1ccc(=O)c(O)c1)C(=O)O [L-Mimosine from Koa hoale seeds]
[3]
  scaled lipid accumulation score: inactive: ≤ 0
